Results taken from PMC3454370.
Results are given in words; binding and its absence hold for the method and conditions named. For some of these results: In cells and extracts the contact can be indirect. Some binding calls cover weakened binding; strength is not graded here. For some of these results: Sequences can lack the tags named with a protein.

Chains of the proteins cited; added tags and fusions are not shown. Lines headed by an entry give the natural chain unless they say otherwise; changes in a name come on top.
UniProt G3HV08: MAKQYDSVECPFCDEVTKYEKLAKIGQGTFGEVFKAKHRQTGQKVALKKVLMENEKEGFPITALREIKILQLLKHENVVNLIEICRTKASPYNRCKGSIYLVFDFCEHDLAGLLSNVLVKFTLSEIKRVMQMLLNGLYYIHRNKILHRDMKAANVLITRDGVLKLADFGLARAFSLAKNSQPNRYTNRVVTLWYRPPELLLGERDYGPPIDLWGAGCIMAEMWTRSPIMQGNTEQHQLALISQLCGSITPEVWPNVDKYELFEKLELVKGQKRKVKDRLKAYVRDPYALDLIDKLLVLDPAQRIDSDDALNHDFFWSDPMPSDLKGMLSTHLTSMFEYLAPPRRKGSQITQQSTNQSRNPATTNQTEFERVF
UniProt P50750: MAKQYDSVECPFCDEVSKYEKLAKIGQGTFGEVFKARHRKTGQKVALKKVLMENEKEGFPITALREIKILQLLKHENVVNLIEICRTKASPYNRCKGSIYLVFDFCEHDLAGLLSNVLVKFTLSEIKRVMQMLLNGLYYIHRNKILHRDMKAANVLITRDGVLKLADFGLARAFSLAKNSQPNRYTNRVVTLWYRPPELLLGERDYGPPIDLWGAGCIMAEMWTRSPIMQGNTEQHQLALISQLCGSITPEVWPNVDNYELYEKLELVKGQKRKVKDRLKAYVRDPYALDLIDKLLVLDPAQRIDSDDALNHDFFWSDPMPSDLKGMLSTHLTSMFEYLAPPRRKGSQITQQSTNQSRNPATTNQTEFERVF
UniProt P06492: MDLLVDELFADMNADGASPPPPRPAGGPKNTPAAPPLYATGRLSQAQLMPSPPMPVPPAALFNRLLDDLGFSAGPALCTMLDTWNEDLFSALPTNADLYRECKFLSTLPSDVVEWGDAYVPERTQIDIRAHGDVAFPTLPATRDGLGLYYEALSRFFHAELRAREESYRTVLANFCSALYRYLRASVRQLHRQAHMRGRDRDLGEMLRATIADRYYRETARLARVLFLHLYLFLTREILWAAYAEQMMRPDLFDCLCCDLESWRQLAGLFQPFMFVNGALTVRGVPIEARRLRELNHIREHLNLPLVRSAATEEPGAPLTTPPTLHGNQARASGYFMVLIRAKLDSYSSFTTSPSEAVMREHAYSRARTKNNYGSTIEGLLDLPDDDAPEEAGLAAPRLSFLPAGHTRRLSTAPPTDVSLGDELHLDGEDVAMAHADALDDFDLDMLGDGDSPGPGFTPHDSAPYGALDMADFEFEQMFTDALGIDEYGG

What was measured:
[1] = biological target: positive transcription elongation factor b (P-TEFb), endogenous in CHO-K1 cells (Chinese hamster (endogenous in CHO-K1)) (UniProt G3HV08); assay: co-IP; CHO-K1 cells co-transfected with pcDNA-ICP22 and pcDNA-VP16 for 40 h; RIPA lysates; IP with anti-ICP22, anti-VP16, anti-Cdk9 or anti-CyclinT1 (IgG as control), also lysates mock-depleted with rabbit IgG; immunoblot
[2] = biological target: positive transcription elongation factor b (P-TEFb), endogenous in Hep-2 cells (human (endogenous in Hep-2)) (UniProt P50750); assay: co-IP; Hep-2 cells infected with HSV-1 (MOI = 1) for 40 h; RIPA lysates; IP with anti-ICP22, anti-VP16, anti-Cdk9 or anti-CyclinT1 (IgG as control); immunoblot; also cells given si-Cdk9 and si-CyclinT1 or scrambled siRNA (100 nM) 12 h before infection, IP with anti-VP16 at 36 h
[3] = biological target: VP16 (HSV-1 tegument protein), expressed from pcDNA-VP16 (HSV-1) (UniProt P06492); assay: co-IP; CHO-K1 cells co-transfected with pcDNA-ICP22 and pcDNA-VP16 for 40 h; RIPA lysates; IP with anti-ICP22, anti-VP16, anti-Cdk9 or anti-CyclinT1 (IgG as control), also lysates mock-depleted with rabbit IgG; immunoblot
[4] = biological target: VP16 two-hybrid fusion from pGBK-VP16 (HSV-1) (UniProt P06492); assay: two-hybrid; yeast trap: yeast strain AH109 transformed with pGAD-ICP22 and pGBK-VP16; beta-galactosidase activity relative to the negative control
[5] = biological target: GST-VP16 fusion protein (HSV-1) (UniProt P06492); assay: pull-down; in vitro binding assay: 600 ng GST-VP16 incubated with 400 ng purified ICP22 at 4 °C for 4 h (GST as control); Glutathione-Sepharose precoated with BSA, overnight at 4 °C; Western blot with anti-ICP22; both purified

Molecule: VP16 (HSV-1 tegument protein), expressed from pcDNA-VP16 (from UniProt P06492 1-490)
- binding [1]: binds

Molecule: VP16 made in HSV-1 infected Hep-2 cells (from UniProt P06492 1-490)
- binding [2]: binds

Molecule: positive transcription elongation factor b (P-TEFb), endogenous in CHO-K1 cells (from UniProt G3HV08 1-372; G3ILA5 1-729) (complex)
- binding [3]: binds

B1: ICP22 (HSV-1 immediate early protein), expressed from pcDNA-ICP22 (protein, UniProt P04485 1-420)
chain: MADISPGAFAPCVKARRPALRSPPLGTRKRKRPSRPLSSESEVESDTALESEVESETASDSTESGDQDEAPRIGGRRAPRRLGGRFFLDMSAESTTGTETDASVSDDPDDTSDWSYDDIPPRPKRARVNLRLTSSPDRRDGVIFPKMGRVRSTRETQPRAPTPSAPSPNAMLRRSVRQAQRRSSARWTPDLGYMRQCINQLFRVLRVARDPHGSANRLRHLIRDCYLMGYCRARLAPRTWCRLLQVSGGTWGMHLRNTIREVEARFDATAEPVCKLPCLETRRYGPECDLSNLEIHLSATSDDEISDATDLEAAGSDHTLASQSDTEDAPSPVTLETPEPRGSLAVRLEDEFGEFDWTPQEGSQPWLSAVVADTSSVERPGPSDSGAGRAAEDRKCLDGCRKMRFSTACPYPCSDTFLRP
- binding [1]: binds

B2: ICP22 made in HSV-1 infected Hep-2 cells (protein, UniProt P04485 1-420)
chain: MADISPGAFAPCVKARRPALRSPPLGTRKRKRPSRPLSSESEVESDTALESEVESETASDSTESGDQDEAPRIGGRRAPRRLGGRFFLDMSAESTTGTETDASVSDDPDDTSDWSYDDIPPRPKRARVNLRLTSSPDRRDGVIFPKMGRVRSTRETQPRAPTPSAPSPNAMLRRSVRQAQRRSSARWTPDLGYMRQCINQLFRVLRVARDPHGSANRLRHLIRDCYLMGYCRARLAPRTWCRLLQVSGGTWGMHLRNTIREVEARFDATAEPVCKLPCLETRRYGPECDLSNLEIHLSATSDDEISDATDLEAAGSDHTLASQSDTEDAPSPVTLETPEPRGSLAVRLEDEFGEFDWTPQEGSQPWLSAVVADTSSVERPGPSDSGAGRAAEDRKCLDGCRKMRFSTACPYPCSDTFLRP
- binding [2]: binds

B3: ICP22 two-hybrid fusion from pGAD-ICP22 (protein, UniProt P04485 1-420)
chain: MADISPGAFAPCVKARRPALRSPPLGTRKRKRPSRPLSSESEVESDTALESEVESETASDSTESGDQDEAPRIGGRRAPRRLGGRFFLDMSAESTTGTETDASVSDDPDDTSDWSYDDIPPRPKRARVNLRLTSSPDRRDGVIFPKMGRVRSTRETQPRAPTPSAPSPNAMLRRSVRQAQRRSSARWTPDLGYMRQCINQLFRVLRVARDPHGSANRLRHLIRDCYLMGYCRARLAPRTWCRLLQVSGGTWGMHLRNTIREVEARFDATAEPVCKLPCLETRRYGPECDLSNLEIHLSATSDDEISDATDLEAAGSDHTLASQSDTEDAPSPVTLETPEPRGSLAVRLEDEFGEFDWTPQEGSQPWLSAVVADTSSVERPGPSDSGAGRAAEDRKCLDGCRKMRFSTACPYPCSDTFLRP
- binding [4]: no binding

B4: purified ICP22 protein (protein, UniProt P04485 1-420)
chain: MADISPGAFAPCVKARRPALRSPPLGTRKRKRPSRPLSSESEVESDTALESEVESETASDSTESGDQDEAPRIGGRRAPRRLGGRFFLDMSAESTTGTETDASVSDDPDDTSDWSYDDIPPRPKRARVNLRLTSSPDRRDGVIFPKMGRVRSTRETQPRAPTPSAPSPNAMLRRSVRQAQRRSSARWTPDLGYMRQCINQLFRVLRVARDPHGSANRLRHLIRDCYLMGYCRARLAPRTWCRLLQVSGGTWGMHLRNTIREVEARFDATAEPVCKLPCLETRRYGPECDLSNLEIHLSATSDDEISDATDLEAAGSDHTLASQSDTEDAPSPVTLETPEPRGSLAVRLEDEFGEFDWTPQEGSQPWLSAVVADTSSVERPGPSDSGAGRAAEDRKCLDGCRKMRFSTACPYPCSDTFLRP
- binding [5]: no binding (tested: 600 ng GST-VP16, 400 ng ICP22)
